Results from PubChem BioAssay AID1768 (National Center for Advancing Translational Sciences (NCATS), 2009).
Among all 270,000 compounds or so, about 620 (0.23%) were called active. The inconclusive results got no clear call from the source; some entries with a clear call stand among them for comparison. The call rests on the fitted dose curve; in most records, active means well fitted inhibition curve with a large enough effect in the polarisation, with a control signal flat (not every such curve was filed as active); inconclusive means small, poorly fitted or top-dose-only effect, or effect the other way, or a change in a side signal; inactive means no such curve, though single readings can be large or run the other way; the % refers to the polarisation. Where the call is inconclusive, the potency comes from a doubtful curve fit. A note “side channel” means that the fit belongs to a control or component signal, not to the main read-out.

biological target: Menin (Homo sapiens) (UniProt O00255); test: qHTS Assay for Inhibitors Targeting the Menin-MLL Interaction in MLL Related Leukemias: Competition With Texas Red Labeled MLL-derived Mutant Peptide; settings: fluorescence polarization; series mostly up to 61.6 µM
Potency means the concentration at half of the fitted maximal effect; tags describe the fitted curve by direction and shape or compound fluorescence and quenching.

UniProt O00255, sequence (O00255 whole entry, looked up): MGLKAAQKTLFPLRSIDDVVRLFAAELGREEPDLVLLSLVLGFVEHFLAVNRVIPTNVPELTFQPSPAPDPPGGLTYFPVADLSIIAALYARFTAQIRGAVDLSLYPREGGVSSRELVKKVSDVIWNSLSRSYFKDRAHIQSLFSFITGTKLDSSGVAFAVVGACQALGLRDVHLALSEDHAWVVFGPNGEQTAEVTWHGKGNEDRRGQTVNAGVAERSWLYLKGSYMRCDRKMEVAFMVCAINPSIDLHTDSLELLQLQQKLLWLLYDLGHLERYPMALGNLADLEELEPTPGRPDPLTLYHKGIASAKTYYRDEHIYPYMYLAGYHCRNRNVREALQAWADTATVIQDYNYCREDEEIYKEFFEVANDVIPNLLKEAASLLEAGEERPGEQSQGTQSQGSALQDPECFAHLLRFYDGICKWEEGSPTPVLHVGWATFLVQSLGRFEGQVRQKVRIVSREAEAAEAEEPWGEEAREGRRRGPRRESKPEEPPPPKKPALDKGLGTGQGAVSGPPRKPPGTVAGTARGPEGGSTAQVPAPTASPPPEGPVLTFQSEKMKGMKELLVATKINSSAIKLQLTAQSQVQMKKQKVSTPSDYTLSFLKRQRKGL

Structure (SMILES)	Potency
c1ccc(C2Nc3ccccc3Oc3ccccc32)cc1 (stereo unspecified)	inconclusive: 25.1 µM [quencher, side channel, partial curve]
O=[N+]([O-])c1cc(Br)c(OCc2nnc(-c3ccccc3)o2)c(Br)c1	inactive
CCCOC(=O)CSc1nc(N2CCOCC2)c2c(c1C#N)CC(C)(C)OC2	inconclusive: 39.8 µM [inhibitor, single point]
COCCn1c(SCc2ccc(F)cc2)nc2c1c(=O)[nH]c(=O)n2C	inactive
O=c1cc(-c2ccc(O)cc2)oc2cc(O)c(C3OC(CO)C(O)C(O)C3O)c(O)c12 (stereo unspecified)	inconclusive: 35.5 µM [quencher, side channel, partial curve]
CC[n+]1ccc(C[n+]2ccccc2)c2ccccc21	inactive
Cc1nc2c(n1C1CCCCC1)C(=O)c1ccccc1C2=O	inconclusive: 8.91 µM [inhibitor, single point]
COc1ccc(N2C(=O)CC(Cc3ccccc3)C2=O)cc1 (stereo unspecified)	inactive
CCCCn1c(SCC(=O)Nc2cc(C)on2)nc2ccsc2c1=O	inactive
COCCSc1nnc(NC(=O)Cc2cccs2)s1	inconclusive: 31.6 µM [quencher, side channel, single point]
COc1ccc2cc(/C=C3\SC(=S)NC3=O)c(N3CCOCC3)nc2c1	inconclusive: 8.91 µM [quencher, side channel, partial curve]
CC(=O)Nc1ccc(S(=O)(=O)N2CCCc3ccccc32)cc1	inconclusive: 20 µM [quencher, side channel, single point]
C(=N\Nc1nc(-c2ccccc2)cs1)/c1cccs1	inconclusive: 39.8 µM [quencher, side channel, single point]
CCCCCCC(=O)Oc1cccc(N2C(=O)C3CCCCC3C2=O)c1 (stereo unspecified)	inconclusive: 0.708 µM [fluorescent, side channel, full curve]
N#CC1=C(SCC(=O)c2ccccc2)NC2=C(C(=O)CCC2)C1c1ccco1 (stereo unspecified)	inconclusive: 31.6 µM [quencher, side channel, single point]
NS(=O)(=O)c1cccc(NC(=O)c2cc(=O)c3ccccc3o2)c1	inconclusive: 39.8 µM [inhibitor, single point]
C=CCc1ccc(OCCOc2cccc3ccc(C)nc23)c(OC)c1	inconclusive: 17.8 µM [quencher, side channel, partial curve]
COc1ccc(NC(=S)N(CCc2c(C)[nH]c3ccc(C)cc23)Cc2ccco2)cc1	inconclusive: 14.1 µM [quencher, side channel, partial curve]
O=C(Cc1cccs1)N/N=C\c1ccc([N+](=O)[O-])s1	inconclusive: 31.6 µM [quencher, side channel, partial curve]
O=C(C1=C(O)C(=O)N(CCCN2CCOCC2)C1c1ccccn1)c1cccs1 (stereo unspecified)	inconclusive: 39.8 µM [fluorescent, side channel, single point]
FC(F)Sc1ccc(NC(=S)NCc2ccccc2)cc1	inconclusive: 12.6 µM [quencher, side channel, partial curve]

Structure (SMILES)	Potency
O=C(Nc1ccccc1)C1=C[C@H](c2csc3ccccc23)C[C@H](OCc2ccc(CO)cc2)O1	inconclusive: 7.94 µM [quencher, side channel, full curve, poor fit]
O=C1N/C(=C\c2nc3ccccc3s2)c2ccccc21	inconclusive: 39.8 µM [inhibitor, single point]
NC(=O)c1ccc(NC(=O)CS(=O)(=O)c2cn(CC(=O)N3CCCC3)c3ccccc23)cc1	inconclusive: 39.8 µM [fluorescent, single point]
N#Cc1c(NC2CCCCC2)nc(-c2ccco2)c2c1CCCC2	inactive
O=C(NCc1ccco1)C(Cc1ccccc1)N1C(=O)c2ccccc2C1=O (stereo unspecified)	inconclusive: 31.6 µM [inhibitor, partial curve]
Cc1cc(C)c2c(CN3CCCCC3C)cc(=O)oc2c1 (stereo unspecified)	inconclusive: 25.1 µM [fluorescent, side channel, partial curve]
Cc1ccc2c(c1)[nH]c1c(=O)n(Cc3ccccn3)cnc12	inactive
O=c1c2ccccc2nc(CSc2nnnn2-c2ccccc2)n1-c1ccccc1	inconclusive: 3.16 µM [inhibitor, single point]
CCOC(=O)[C@H](CCc1ccccc1)N[C@@H](C)C(=O)N1[C@H](C(=O)O)C[C@H]2CCC[C@@H]21	inactive
Cc1ccc(Nc2nc(OC(C(F)(F)F)C(F)(F)F)nc(N3CCOCC3)n2)cc1	inconclusive: 10 µM [fluorescent, side channel, partial curve]
O=C(OCN1C(=O)c2ccccc2C1=O)c1cccnc1SC(F)F	inconclusive: 10 µM [inhibitor, single point]
CCc1nnc(SCC(=O)N2CCCc3ccccc32)nc1CC	inconclusive: 8.91 µM [inhibitor, full curve]
O=C(c1ccc(C(F)(F)F)cc1)N1CCC(=O)N([C@H](COCc2ccc(Cl)cc2)Cc2ccccc2)CC1	inconclusive: 5.62 µM [fluorescent, side channel, full curve, poor fit]
CC1SC(c2ccccc2Cl)NC1=O (stereo unspecified)	inactive
CCOc1ccc(NC(=S)N(CCc2c(C)[nH]c3ccccc23)Cc2cccnc2)cc1	inconclusive: 39.8 µM [quencher, side channel, single point]
CC(=O)NCCNc1ncnc2ccc(-c3c(C)noc3C)cc12	inactive
COc1ccccc1OCCCCCc1c(C)n[nH]c1C	inconclusive: 2.82 µM [inhibitor, partial curve]
OCCCNc1nc(-c2ccc(Cl)cc2)nc2ccccc12	inconclusive: 14.1 µM [quencher, side channel, partial curve]
CCCn1c(/C=C/c2ccco2)nc2ccccc21	inactive
O=C(Nc1nc(-c2cc3ccccc3o2)cs1)c1ccc(S(=O)(=O)N2CCCC2)cc1	inconclusive: 22.4 µM [inhibitor, partial curve]
CCc1ccc(NC(=S)N2CCC(NC(=O)c3ccccc3)CC2)cc1	inconclusive: 35.5 µM [fluorescent, side channel, single point]

Structure (SMILES)	Potency
Cc1cc(NCCCO)n2c(nc3ccccc32)c1C#N	inactive
Cc1nc(Nc2nc(CSc3nc4ccccc4[nH]3)cc(=O)[nH]2)nc2ccccc12	inactive
CC(=O)c1ccc(NC(=O)CC2Nc3cccc4cccc(c34)NC2=O)cc1 (stereo unspecified)	inconclusive: 15.8 µM [quencher, side channel, partial curve]
O=C(Nc1cccc(F)c1)Nc1cccc(Cl)c1	inconclusive: 28.2 µM [quencher, side channel, partial curve]
O=C1CC(Nc2ccc3ccccc3c2)C(=O)N1Cc1ccccc1 (stereo unspecified)	inconclusive: 22.4 µM [quencher, side channel, single point]
Cc1ccc(-c2nnc(SCC(C)C)n2C)cc1	inconclusive: 17.8 µM [fluorescent, side channel, partial curve]
CC1=CC2(O)OCCN(CCO)C2=CC1=O (stereo unspecified)	inconclusive: 12.6 µM [quencher, side channel, partial curve]
CCn1c(=O)c(C(=O)Nc2ccccc2F)c(O)c2ccccc21	inconclusive: 11.2 µM [quencher, side channel, partial curve]
Cc1cccc(/C=C(\C#N)C(=O)Nc2ccccn2)c1	inconclusive: 39.8 µM [quencher, side channel, single point]
COc1ccc(-c2[nH]ncc2N=Nc2ccccc2)cc1	inconclusive: 12.6 µM [quencher, side channel, partial curve]
COc1ccc(NC(=O)/C(C#N)=C/c2ccc(Sc3nncn3C)c([N+](=O)[O-])c2)cc1	inconclusive: 15.8 µM [quencher, side channel, single point]
O=C(C1=C[C@H](c2ccc3c(c2)OCO3)C[C@H](OCc2ccc(CO)cc2)O1)N1CCCCCCC1	inconclusive: 1.78 µM [fluorescent, side channel, full curve]
CCc1ccc(CNc2ccc(N3CCN(C(C)=O)CC3)cc2)cc1	inconclusive: 39.8 µM [inhibitor, partial curve, poor fit]
Cc1nc(NC2CCCCC2)c2nc(-c3ccccc3)n(CCN3CCCCC3)c2n1	inconclusive: 3.16 µM [fluorescent, side channel, full curve, poor fit]
Cc1ccc(NC(=O)c2cc(S(=O)(=O)N3CCc4ccccc43)cn2C)cc1C	inconclusive: 3.55 µM [quencher, side channel, single point]
COC(=O)C1Cc2c([nH]c3ccccc23)C2(CCN(Cc3ccccc3)CC2)N1 (stereo unspecified)	inconclusive: 3.16 µM [fluorescent, side channel, partial curve]
O=C(C1=C[C@@H]2[C@H]3C(=O)N(c4ccc(Cl)cc4)C(=O)[C@H]3[C@@H](C(=O)c3ccc(Cl)cc3)N2C=C1)c1ccccc1	inconclusive: 12.6 µM [quencher, side channel, partial curve]
Cc1ccc(-n2nc3ccc(N)cc3n2)cc1C	inconclusive: 25.1 µM [quencher, side channel, partial curve]
CC(C)CCNC(=O)C1CCN(S(=O)(=O)c2ccc(-n3cnnn3)cc2)CC1	inactive
